Reference: the supplement of paper PMC10126150
Values marked as one replicate rest on one cluster of the flow cell; about a third of the high ones do not repeat.

Test system: ATP
Test: switch fluorescence ratio, 500 uM ATP over buffer (Cy3 cluster intensity, sum of 5 cycles each) (fold (ratio)); higher = stronger signal-on switching upon ATP binding; sequences stand for … in TCGTCGGCAGCGTCAGATGTGTATAAGAGACAGTTTTTTTTTTTTTTTTTTTTTTTTT…TC
Settings: aptamer strand: ATP DNA aptamer (quencher-CACCTGGGGGAGTATTGCGGAGGAAGG + anchor), 100 nM annealed; ATP concentration: 500 uM; one replicate
Summary of the method: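 Values give the fluorescence ratio for each switch-domain sequence, averaged from per-cluster ratios of summed target-cycle to summed buffer-cycle Cy3 intensity. The Cy3-labelled switching-strand clusters sat on a modified Illumina MiSeq flow-cell, were annealed to 100 nM quencher-labelled ATP aptamer, and were imaged in selection buffer, then after 15 min with 500 uM ATP at 22 °C. Five cycles ran with NaOH stripping and re-annealing between them, and clusters outside 100-1000 RFU were excluded.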
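Note: ATP exposure 15 min at 22 °C before imaging.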

Row | Sequence | switch fluorescence ratio
1 | AATTTGTTGA | 1.03
2 | TGGGCCGG | 1.15
3 | AGACGCTTTC | 1.6
4 | CCAGCCGCCT | 1.07
5 | GCTTGCAGGG | 1.01
6 | TGGTCGCATA | 1
7 | CTCCGAGACG | 1.28
8 | TGCTCCTGAC | 1.98
9 | TTTGTGACGG | 1.03
10 | GGGTGTAAAG | 1.05
11 | CTGGTGCTGG | 1.01
12 | TGCAACTATA | 1.02
13 | TCGCGGTGTG | 1.03
14 | TGAGTTTAG | 0.996
15 | AGGCTACTT | 1.02
16 | GTATGGTATA | 1.03
17 | TGGGCCTAGT | 0.993
18 | AGGTGGTGG | 1.03
19 | ACTTGTCCTG | 1.01
20 | ATATTATAGG | 0.943
21 | ACCCACTTTA | 1.37
22 | CCGGATATTT | 1.02

Row | Sequence | switch fluorescence ratio
23 | AAGTAGAAAA | 0.994
24 | TTCATTCGTG | 1.03
25 | CAGTTTTTTG | 0.949
26 | TGAACACGCC | 1.1
27 | ACGACCAT | 1.25
28 | TCGCGCCCCC | 1.87
29 | GCAGACACCA | 1.05
30 | CCGTGTGTAG | 1.03
31 | TAAACCATTA | 1.04
32 | TCGATTAGAA | 0.971
33 | GGTAACGTCT | 0.951
34 | TCTTTTCGT | 1.04
35 | TAAGGGTCAA | 1
36 | TATTTGAATT | 1.04
37 | TACAGAGCAG | 1.21
38 | CCCACATATG | 1
39 | GAAATAGGCA | 0.957
40 | TCCAATCAAT | 1.09
41 | ACCGTCCTTG | 1.13
42 | GCCCAATATG | 1.16
43 | TCGGGAGATG | 0.994
44 | TGTGCCTGGT | 0.975

Row | Sequence | switch fluorescence ratio
45 | GAGAATACCC | 1.07
46 | CTGGATTGGT | 0.971
47 | CATCAAGACG | 1.11
48 | CAATAAGCCA | 1.01
49 | ACAGTATTTC | 1.12
50 | GGCCTCAATT | 1.01
51 | AATTAGGCAA | 1.09
52 | CTTTAAAGAA | 0.974
53 | TCTATTCTT | 0.971
54 | ACGGATGGAG | 0.995
55 | TGACAGGGAT | 0.986
56 | TACTCAAGTA | 1
57 | GCTTGAGTTT | 0.995
58 | TTTGTAGTAG | 0.932
59 | TTCCTTCATC | 1.59
60 | CTTGCCGTAT | 1.01
61 | GTGTCGGAAT | 1.01
62 | CCAGTTTGG | 0.975
63 | TCGGGTGCCA | 0.969
64 | AAACGGGGA | 1.02
65 | CGTGAAGGGG | 0.979
66 | TATATGTAA | 1.01

Row | Sequence | switch fluorescence ratio
67 | GACAATGCAC | 1.3
68 | ATGGAGAGCG | 0.991
69 | AGTCGCACAT | 1.02
70 | TGCATTATCG | 1.05
71 | CAGACACCCT | 1.15
72 | GGATAATTCG | 1.07
73 | GGGCGGTGAC | 1.02
74 | ACGTTATT | 1.19
75 | TGTGATGTAA | 0.954
76 | TGCCCGTGCT | 1.07
77 | ATACCGTCGC | 1.07
78 | ATCGGCAGCA | 1.04
79 | TGGGTTTCA | 1.01
80 | GCCCTCCGGA | 2.01
81 | CGCGTACCTT | 1.06
82 | GTGTACAAGT | 0.941
83 | TTCGATCCTG | 0.979
84 | TGCAAGTAGT | 1.04
85 | ATACCTGTAT | 1.06
